From the supplement of paper PMC8728848
Some of the results follow.

Legend:
Experiment in all cases: glycan array binding signal (z-score within array); higher = stronger binding
Conditions in all cases: glycan notation: IUPAC condensed, linker removed
[1] = biological target: Gal(b1-4)GlcNAc(b1-2)[Gal(b1-4)GlcNAc(b1-6)]Man(a1-6)[GlcNAc(b1-4)][Gal(b1-4)GlcNAc(b1-2)[Gal(b1-4)GlcNAc(b1-4)]Man(a1-3)]Man(b1-4)GlcNAc(b1-4)[Fuc(a1-6)]GlcNAc
Procedure, shortened: (§1)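 Glycan array data came from 3228 arrays in the Consortium for Functional Glycomics database, and only arrays with an available protein sequence were kept. Glycan names were put into IUPAC-condensed notation, and columns mapping to the same glycan were averaged. The binding signal is a within-array Z-score, averaged across arrays of one protein sequence run at different concentrations or buffers and across linkers. A negative Z-score can be read as non-binding.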

[2] = biological target: Gal(b1-4)GlcNAc(b1-3)Gal(b1-3)GalNAc
Procedure, shortened: as §1

[3] = biological target: Gal(b1-4)GlcNAc(b1-3)Gal(b1-3)GlcNAc
Procedure, shortened: as §1

[4] = biological target: Gal(b1-4)GlcNAc(b1-3)Gal(b1-4)Glc
Procedure, shortened: as §1

[5] = biological target: Gal(b1-4)GlcNAc(b1-3)Gal(b1-4)GlcNAc
Procedure, shortened: as §1

[6] = biological target: Gal(b1-4)GlcNAc(b1-3)Gal(b1-4)GlcNAc(b1-2)Man(a1-3)[Gal(b1-4)GlcNAc(b1-3)Gal(b1-4)GlcNAc(b1-2)Man(a1-6)]Man(b1-4)GlcNAc(b1-4)GlcNAc
Procedure, shortened: as §1

[7] = biological target: Gal(b1-4)GlcNAc(b1-3)Gal(b1-4)GlcNAc(b1-2)Man(a1-3)[Gal(b1-4)GlcNAc(b1-3)Gal(b1-4)GlcNAc(b1-2)Man(a1-6)]Man(b1-4)GlcNAc(b1-4)[Fuc(a1-6)]GlcNAc
Procedure, shortened: as §1

[8] = biological target: Gal(b1-4)GlcNAc(b1-3)Gal(b1-4)GlcNAc(b1-2)[Gal(b1-4)GlcNAc(b1-3)Gal(b1-4)GlcNAc(b1-6)]Man(a1-6)[Gal(b1-4)GlcNAc(b1-3)Gal(b1-4)GlcNAc(b1-2)Man(a1-3)]Man(b1-4)GlcNAc(b1-4)GlcNAc
Procedure, shortened: as §1

[9] = biological target: Gal(b1-4)GlcNAc(b1-3)Gal(b1-4)GlcNAc(b1-2)[Gal(b1-4)GlcNAc(b1-3)Gal(b1-4)GlcNAc(b1-6)]Man(a1-6)[Gal(b1-4)GlcNAc(b1-3)Gal(b1-4)GlcNAc(b1-2)Man(a1-3)]Man(b1-4)GlcNAc(b1-4)[Fuc(a1-6)]GlcNAc
Procedure, shortened: as §1

[10] = biological target: Gal(b1-4)GlcNAc(b1-3)Gal(b1-4)GlcNAc(b1-3)Gal(b1-4)GlcNAc
Procedure, shortened: as §1

[11] = biological target: Gal(b1-4)GlcNAc(b1-3)Gal(b1-4)GlcNAc(b1-3)Gal(b1-4)GlcNAc(b1-2)Man(a1-3)[Gal(b1-4)GlcNAc(b1-3)Gal(b1-4)GlcNAc(b1-3)Gal(b1-4)GlcNAc(b1-2)Man(a1-6)]Man(b1-4)GlcNAc(b1-4)GlcNAc
Procedure, shortened: as §1

[12] = biological target: Gal(b1-4)GlcNAc(b1-3)Gal(b1-4)GlcNAc(b1-3)Gal(b1-4)GlcNAc(b1-2)Man(a1-3)[Gal(b1-4)GlcNAc(b1-3)Gal(b1-4)GlcNAc(b1-3)Gal(b1-4)GlcNAc(b1-2)Man(a1-6)]Man(b1-4)GlcNAc(b1-4)[Fuc(a1-6)]GlcNAc
Procedure, shortened: as §1

[13] = biological target: Gal(b1-4)GlcNAc(b1-3)Gal(b1-4)GlcNAc(b1-3)Gal(b1-4)GlcNAc(b1-2)[Gal(b1-4)GlcNAc(b1-3)Gal(b1-4)GlcNAc(b1-3)Gal(b1-4)GlcNAc(b1-6)]Man(a1-6)[Gal(b1-4)GlcNAc(b1-3)Gal(b1-4)GlcNAc(b1-3)Gal(b1-4)GlcNAc(b1-2)Man(a1-3)]Man(b1-4)GlcNAc(b1-4)[Fuc(a1-6)]GlcNAc
Procedure, shortened: as §1

[14] = biological target: Gal(b1-4)GlcNAc(b1-3)Gal(b1-4)GlcNAc(b1-3)Gal(b1-4)GlcNAc(b1-3)Gal(b1-4)GlcNAc(b1-2)Man(a1-3)[Gal(b1-4)GlcNAc(b1-3)Gal(b1-4)GlcNAc(b1-3)Gal(b1-4)GlcNAc(b1-3)Gal(b1-4)GlcNAc(b1-2)Man(a1-6)]Man(b1-4)GlcNAc(b1-4)GlcNAc
Procedure, shortened: as §1

[15] = biological target: Gal(b1-4)GlcNAc(b1-3)Gal(b1-4)GlcNAc(b1-3)Gal(b1-4)GlcNAc(b1-3)Gal(b1-4)GlcNAc(b1-2)Man(a1-3)[Gal(b1-4)GlcNAc(b1-3)Gal(b1-4)GlcNAc(b1-3)Gal(b1-4)GlcNAc(b1-3)Gal(b1-4)GlcNAc(b1-2)Man(a1-6)]Man(b1-4)GlcNAc(b1-4)[Fuc(a1-6)]GlcNAc
Procedure, shortened: as §1

[16] = biological target: Gal(b1-4)GlcNAc(b1-3)Gal(b1-4)GlcNAc(b1-3)Gal(b1-4)GlcNAc(b1-3)Gal(b1-4)GlcNAc(b1-2)[Gal(b1-4)GlcNAc(b1-3)Gal(b1-4)GlcNAc(b1-3)Gal(b1-4)GlcNAc(b1-3)Gal(b1-4)GlcNAc(b1-6)]Man(a1-6)[Gal(b1-4)GlcNAc(b1-3)Gal(b1-4)GlcNAc(b1-3)Gal(b1-4)GlcNAc(b1-3)Gal(b1-4)GlcNAc(b1-2)Man(a1-3)]Man(b1-4)GlcNAc(b1-4)[Fuc(a1-6)]GlcNAc
Procedure, shortened: as §1

[17] = biological target: Gal(b1-4)GlcNAc(b1-3)Gal(b1-4)GlcNAc(b1-3)Gal(b1-4)GlcNAc(b1-3)Gal(b1-4)GlcNAc(b1-3)Gal(b1-4)GlcNAc(b1-2)Man(a1-3)[Gal(b1-4)GlcNAc(b1-3)Gal(b1-4)GlcNAc(b1-3)Gal(b1-4)GlcNAc(b1-3)Gal(b1-4)GlcNAc(b1-3)Gal(b1-4)GlcNAc(b1-2)Man(a1-6)]Man(b1-4)GlcNAc(b1-4)GlcNAc
Procedure, shortened: as §1

[18] = biological target: Gal(b1-4)GlcNAc(b1-3)Gal(b1-4)GlcNAc(b1-3)Gal(b1-4)GlcNAc(b1-3)Gal(b1-4)GlcNAc(b1-3)Gal(b1-4)GlcNAc(b1-2)Man(a1-3)[Gal(b1-4)GlcNAc(b1-3)Gal(b1-4)GlcNAc(b1-3)Gal(b1-4)GlcNAc(b1-3)Gal(b1-4)GlcNAc(b1-3)Gal(b1-4)GlcNAc(b1-2)Man(a1-6)]Man(b1-4)GlcNAc(b1-4)[Fuc(a1-6)]GlcNAc
Procedure, shortened: as §1

[19] = biological target: Gal(b1-4)GlcNAc(b1-3)Gal(b1-4)GlcNAc(b1-3)Gal(b1-4)GlcNAc(b1-3)Gal(b1-4)GlcNAc(b1-3)Gal(b1-4)GlcNAc(b1-2)[Gal(b1-4)GlcNAc(b1-3)Gal(b1-4)GlcNAc(b1-3)Gal(b1-4)GlcNAc(b1-3)Gal(b1-4)GlcNAc(b1-3)Gal(b1-4)GlcNAc(b1-6)]Man(a1-6)[Gal(b1-4)GlcNAc(b1-3)Gal(b1-4)GlcNAc(b1-3)Gal(b1-4)GlcNAc(b1-3)Gal(b1-4)GlcNAc(b1-3)Gal(b1-4)GlcNAc(b1-2)Man(a1-3)]Man(b1-4)GlcNAc(b1-4)[Fuc(a1-6)]GlcNAc
Procedure, shortened: as §1

[20] = biological target: Gal(b1-4)GlcNAc(b1-3)Gal(b1-4)GlcNAc(b1-3)Gal(b1-4)GlcNAc(b1-3)Gal(b1-4)GlcNAc(b1-3)Gal(b1-4)GlcNAc(b1-3)Gal(b1-4)GlcNAc(b1-2)Man(a1-3)[Gal(b1-4)GlcNAc(b1-3)Gal(b1-4)GlcNAc(b1-3)Gal(b1-4)GlcNAc(b1-3)Gal(b1-4)GlcNAc(b1-3)Gal(b1-4)GlcNAc(b1-3)Gal(b1-4)GlcNAc(b1-2)Man(a1-6)]Man(b1-4)GlcNAc(b1-4)GlcNAc
Procedure, shortened: as §1

[21] = biological target: Gal(b1-4)GlcNAc(b1-3)Gal(b1-4)GlcNAc(b1-3)GalNAc
Procedure, shortened: as §1

[22] = biological target: Gal(b1-4)GlcNAc(b1-3)Gal(b1-4)GlcNAc(b1-3)[Gal(b1-4)GlcNAc(b1-3)Gal(b1-4)GlcNAc(b1-6)]GalNAc
Procedure, shortened: as §1

[23] = biological target: Gal(b1-4)GlcNAc(b1-3)Gal(b1-4)GlcNAc(b1-6)[Gal(b1-3)]GalNAc
Procedure, shortened: as §1

[24] = biological target: Gal(b1-4)GlcNAc(b1-3)Gal(b1-4)[Fuc(a1-3)]GlcNAc(b1-3)Gal(b1-4)[Fuc(a1-3)]GlcNAc
Procedure, shortened: as §1

[25] = biological target: Gal(b1-4)GlcNAc(b1-3)GalNAc
Procedure, shortened: as §1

[26] = biological target: Gal(b1-4)GlcNAc(b1-3)[Fuc(a1-3)GlcNAc(b1-6)]Gal(b1-4)Glc
Procedure, shortened: as §1

[27] = biological target: Gal(b1-4)GlcNAc(b1-3)[Gal(b1-4)GlcNAc(b1-6)]Gal(b1-4)GlcNAc
Procedure, shortened: as §1

[28] = biological target: Gal(b1-4)GlcNAc(b1-3)[GlcNAc(b1-6)]Gal(b1-4)GlcNAc
Procedure, shortened: as §1

[29] = biological target: Gal(b1-4)GlcNAc(b1-6)Gal(b1-4)GlcNAc
Procedure, shortened: as §1

[30] = biological target: Gal(b1-4)GlcNAc(b1-6)GalNAc
Procedure, shortened: as §1

[31] = biological target: Gal(b1-4)GlcNAc(b1-6)[Gal(b1-3)]GalNAc
Procedure, shortened: as §1

[32] = biological target: Gal(b1-4)GlcNAc(b1-6)[Gal(b1-4)GlcNAc(b1-3)]GalNAc
Procedure, shortened: as §1

Gal(b1-4)GlcNAc6P = biological target: Gal(b1-4)GlcNAc6P
Procedure, shortened: as §1

Gal(b1-6)Gal = biological target: Gal(b1-6)Gal
Procedure, shortened: as §1

Gal3S(b1-3)GalNAc = biological target: Gal3S(b1-3)GalNAc
Procedure, shortened: as §1

Gal3S(b1-3)GlcNAc = biological target: Gal3S(b1-3)GlcNAc
Procedure, shortened: as §1

[33] = biological target: Gal3S(b1-3)[Fuc(a1-4)]GlcNAc
Procedure, shortened: as §1

Gal3S(b1-4)Glc = biological target: Gal3S(b1-4)Glc
Procedure, shortened: as §1

B1: ACA (Amaranthus caudatus) (protein)
chain: MAGLPVIMCLKSNNNQKYLRYQSDNIQQYGLLQFSADKILDPLAQFEVEPSKTYDGLVHIKSRYTNKYLVRWSPNHYWITASANEPDENKSNWACTLFKPLYVEEGNMKKVRLLHVQLGHYTQNYTVGGSFVSYLFAESSQIDTGSKDVFHVIDWKSIFQFPKRYVTFKGNNGKYLGVITINQLPCLQFGYDNLNDPKVAHEMFVTSNGTICIKSTYMNKFWRLSTDDWILVDGNDPRETNEAAALFRSDVHDFNVISLLNMQKTWFIKRFTSGKPGFINCMNAATQNVDETAILEIIELGSNN
[1]
  glycan array binding signal (z-score): -0.189
[2]
  glycan array binding signal (z-score): -0.467
[3]
  glycan array binding signal (z-score): -0.083
[4]
  glycan array binding signal (z-score): -0.12
[5]
  glycan array binding signal (z-score): -0.278
[6]
  glycan array binding signal (z-score): 4.74
[7]
  glycan array binding signal (z-score): 3.63
[8]
  glycan array binding signal (z-score): -0.059
[9]
  glycan array binding signal (z-score): 0.493
[10]
  glycan array binding signal (z-score): 0.04
[11]
  glycan array binding signal (z-score): 5.84
[12]
  glycan array binding signal (z-score): 0.163
[13]
  glycan array binding signal (z-score): 0.14
[14]
  glycan array binding signal (z-score): 0.284
[15]
  glycan array binding signal (z-score): 0.3
[16]
  glycan array binding signal (z-score): 0.004
[17]
  glycan array binding signal (z-score): 0.541
[18]
  glycan array binding signal (z-score): 0.108
[19]
  glycan array binding signal (z-score): 0.076
[20]
  glycan array binding signal (z-score): -0.071
[21]
  glycan array binding signal (z-score): 2.41
[22]
  glycan array binding signal (z-score): 5.24
[23]
  glycan array binding signal (z-score): 3.84
[24]
  glycan array binding signal (z-score): -0.003
[25]
  glycan array binding signal (z-score): -0.125
[26]
  glycan array binding signal (z-score): 0.71
[27]
  glycan array binding signal (z-score): -0.303
[28]
  glycan array binding signal (z-score): -0.065
[29]
  glycan array binding signal (z-score): -0.236
[30]
  glycan array binding signal (z-score): -0.462
[31]
  glycan array binding signal (z-score): -0.19
[32]
  glycan array binding signal (z-score): 0.108
Gal(b1-4)GlcNAc6P
  glycan array binding signal (z-score): -0.362
Gal(b1-6)Gal
  glycan array binding signal (z-score): -0.418
Gal3S(b1-3)GalNAc
  glycan array binding signal (z-score): -0.205
Gal3S(b1-3)GlcNAc
  glycan array binding signal (z-score): -0.402
[33]
  glycan array binding signal (z-score): -0.203
Gal3S(b1-4)Glc
  glycan array binding signal (z-score): -0.156
